Source: PubChem BioAssay AID662 (National Center for Advancing Translational Sciences (NCATS), 2007)
Among all 71,000 compounds or so, about 1,800 (2.5%) were called active. Inconclusive results, whose numbers are uncertain, are shown with a selection of clear calls. Calls follow the shape of the dose curve; as a rule, active = well fitted activation curve with a large enough effect in the signal ratio, with a control signal flat (not every such curve was filed as active); inconclusive = small, poorly fitted or top-dose-only effect, or effect the other way, or a change in a side signal; inactive = flat fitted curve, though single readings scatter; the % refers to the signal ratio. Potencies beside an inconclusive call are fits to weak or partial responses and may not hold up.

Experiment: Cell signaling CRE-BLA (Fsk stim); as to activity change, negative = inhibition: % of control where 0% means no effect
Conditions: CHO CRE-bla reporter (cAMP response element driving beta-lactamase), forskolin EC10, beta-lactamase ratio; activity change, negative = inhibition: at 38.2 µM (top of the series) unless noted
Procedure, shortened: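 CHO CRE-bla cells, overnight plating in Opti-MEM with 0.5% dialyzed FBS; cpd titration + EC10 NKH 477, 3 h 37 °C; CCF4 2 h RT; ex 405/em 460 vs 530 ratio → %Activity, AC50.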
Potency is read from the fitted curve at half-maximal effect; tags tell the direction and shape of the fitted curve.

Compound | Potency | activity change, negative = inhibition
O=c1cnc2cncnc2n1Cc1ccccc1 | inconclusive: 15.8 µM [rising, single point] | 
CCc1ccccc1NC(=O)c1cnc2scc(C)n2c1=O |  | inconclusive: 10.3%
Cc1ccc(-n2c(SCc3cn4ccsc4n3)nc3ccccc3c2=O)cc1 | inconclusive: 2.51 µM [rising, partial curve] | 
Nc1ccccc1S[C@@H](C[N+](=O)[O-])c1ccc2c(c1)OCO2 |  | inactive: -4.38% [at 7.6 µM]
Nc1ccc(Cl)cc1[N+](=O)[O-] |  | inactive
CCC/C=C(\CCC)C(NS(=O)(=O)c1ccc(C(F)(F)F)cc1)c1ccccc1 (stereo not drawn) | inconclusive: 2 µM [rising, single point] | 
O=C(Cn1ccc2ccccc2c1=O)NCCC(=O)Nc1ccc2c(c1)OCCO2 |  | inactive
CCOC(=O)/C(C#N)=C1/C=C(C)NC(c2ccccc2O)=N1 |  | inconclusive: -17.6% [at 7.6 µM]
COC(=O)[C@@]1(Cc2ccc(F)cc2)[C@H]2c3cc(C(=O)N(C)C)n(CCCNc4ccc(C(F)(F)F)cc4Cl)c3C[C@H]2CN1C(=O)c1ccccc1 |  | inactive
Cn1ccnc1SCC(=O)Nc1ccc(Oc2ccccc2)cc1 |  | inactive
COC(=O)CSc1nc2ccccc2c(=O)n1C |  | inconclusive: 29.2%
O=C(CSc1nc(-c2cccs2)cc(C(F)(F)F)n1)NCc1ccco1 |  | inactive
Cc1cc2n(n1)C(c1ccsc1)Nc1ccccc1-2 (stereo not drawn) | inconclusive: 1 µM [rising, partial curve] | 
CC(=O)Nc1ccc(S(=O)(=O)Nc2cccc(N(C)S(C)(=O)=O)c2)cc1 |  | inactive
O=C(CN1CCN(S(=O)(=O)c2ccc(Cl)cc2)CC1)Nc1ccc2c(c1)OCCO2 |  | inconclusive: -23.8%
CCCCOCCCn1c(-c2ccco2)nc2nc3ccccc3nc21 | active: 12.6 µM | 
O=C(Nc1ccc(S(=O)(=O)N2CCCCCC2)cc1)c1ccco1 |  | inconclusive: 23.5% [at 7.6 µM]
CCCn1c(SCc2ccc(Cl)cc2)nc2c1c(=O)[nH]c(=O)n2C | active: 12.6 µM | 
CCCSc1nc2c(c(=O)[nH]c(=O)n2C)n1CCc1ccccc1 |  | inconclusive: 28.8%
COc1ccccc1-n1nnnc1SCC(=O)NC1CCCC1 |  | inactive
O=C(COc1ccc(Cl)cc1Cl)NCc1ccncc1 |  | inconclusive: 9.68% [at 7.6 µM]

Compound | Potency | activity change, negative = inhibition
O=C(Cc1cccs1)NCc1cccs1 |  | inactive
CC1(C)Cc2ccccc2-c2nnc(SCC(=O)Nc3ccc4c(c3)OCO4)n21 | inconclusive: 12.6 µM [rising, partial curve] | 
CC(=O)Nc1ccc(C(=O)CSc2nnnn2C(C)C)cc1 |  | inactive
S=C1NCN2CCN(CC2)CNC(=S)C(=S)NCN2CCN(CC2)CNC1=S |  | inactive: -12.8% [at 7.6 µM]
CCn1c(=O)cc(OCC(=O)NCCC(C)C)c2ccccc21 | inconclusive: 7.94 µM [rising, partial curve] | 
CCNc1ncc2nc(-c3ccc(F)cc3)c(=O)n(-c3ccc(OC)cc3)c2n1 | inconclusive: 0.398 µM [rising, full curve] | 
CCN(C(=O)c1cc(Cl)ccc1OC)C1CCCCC1 |  | inconclusive: -6.59% [at 7.6 µM]
COCC(=O)N(Cc1cc2ccccc2[nH]c1=O)c1ccc(OC)cc1 |  | inactive
NCCCCCCN |  | inconclusive: -18.8%
COc1ccccc1/C=c1\sc2nc(-c3ccco3)nn2c1=O |  | inactive
CCCn1c(SCC(=O)N2CCCc3ccccc32)nnc1-c1ccccn1 |  | inactive
COc1cccc(C2=CC(c3ccc(N(C)C)cc3)n3ncnc3N2)c1 (stereo not drawn) | inconclusive: 12.6 µM [rising, partial curve] | 
O=C(CCN1C(=O)C2C3C=CC(C3)C2C1=O)N1CCN(c2cccc(Cl)c2)CC1 (stereo not drawn) |  | inconclusive: -21.2%
O=C(CSc1nnc(COc2ccc(Cl)cc2)n1Cc1ccco1)c1ccccc1F |  | inactive
COc1ccc(NC(=O)c2cnc3sccn3c2=O)cc1 |  | inactive
CCOC(=O)c1cc2c(=O)n3ccccc3nc2n(Cc2ccco2)c1=NC(=O)c1cccnc1 | inconclusive: 15.8 µM [rising, partial curve] | 
Nc1c(-c2ccccc2)n[nH]c1-c1ccccc1 |  | inconclusive: -2.5%
O=c1[nH]c2ccsc2c(=O)n1-c1ccc(F)c(Cl)c1 |  | inconclusive: -21.1%
Cn1c(CNc2nc(-c3ccccc3)cs2)nnc1SCC(=O)N1CCc2ccccc21 |  | inconclusive: -3.33%
O=c1c2ccccc2nc(-c2ccco2)n1/N=C/c1ccco1 | active: 10 µM | 
Cc1cc(=O)oc2c(OS(C)(=O)=O)c(OS(C)(=O)=O)ccc12 |  | inactive: 1.42% [at 7.6 µM]

Compound | Potency | activity change, negative = inhibition
COc1cccc(Cn2c(=S)[nH]c3ccc(N4CCOCC4)cc3c2=O)c1 | inconclusive: 15.8 µM [rising, partial curve] | 
COc1ccc(C(=O)SC2=NCCS2)cc1OC |  | inconclusive: 13.8% [at 7.6 µM]
Cc1ccc(CNC(=O)C2(CC(C)C)C=CCN2C(=O)c2ccccc2)o1 (stereo not drawn) |  | inactive
O=c1[nH]n(CC2COC3(CCCCC3)O2)c(=O)c2ccccc12 (stereo not drawn) | inconclusive: 12.6 µM [rising, single point] | 
Cc1ccc(C(C(=O)NCc2ccco2)N(C(=O)Cn2nnc3ccccc32)c2ccccc2)o1 (stereo not drawn) |  | inactive
Cc1ccccc1-c1cc(N2CCNCC2)ncn1 |  | inactive
Cc1nc2oc3c(NCc4ccccn4)ncnc3c2c2c1COC(C)(C)C2 | inconclusive: 10 µM [rising, partial curve] | 
COc1ccccc1CNS(=O)(=O)c1cc(C)ccc1OC |  | inconclusive: -1.29%
Cc1ccc(Cl)cc1N1CCN(C(=O)Cn2ccc3ccccc3c2=O)CC1 |  | inconclusive: -17.8%
c1ccc(Sc2nc(N3CCCCC3)nc(N3CCCCC3)n2)nc1 |  | inconclusive: -10.5% [at 7.6 µM]
Cn1c(-c2ccccc2)cc(=O)c2ccccc21 |  | inconclusive: 22%
COc1cccc(C2CC(c3cccc(OC)c3)n3nc(N)nc3N2)c1 (stereo not drawn) |  | inactive
C/C(=C1/SC(=S)N(CCC(=O)O)C1=O)c1ccc(O)cc1 |  | inactive
COc1ccc(S(=O)(=O)N2CCC(C(=O)NCc3cccc(OC)c3)CC2)cc1 |  | inactive
CC1=C(C(=O)N(C)C)C(c2cccc(Cl)c2)NC(=O)N1 (stereo not drawn) |  | inconclusive: 23.6%
O=C(O)CSc1nnc(Cn2nnc3ccccc32)n1CCc1ccccc1 | active: 7.94 µM | 
Cc1nc2nc(-c3ccccc3)[nH]n2c(=O)c1Cc1ccccc1 |  | inactive
CN(C)c1ncc2nc(-c3cc(F)cc(F)c3)c(=O)n(C3CC3)c2n1 | inconclusive: 10 µM [rising, partial curve] | 
Cc1cccc(S(=O)(=O)C(C#N)c2nc3ccccc3nc2N2CCCC2)c1 (stereo not drawn) |  | inconclusive: 7.4%
CCOC(=O)c1oc2cccc(OCC(O)CNC(C)C)c2c1C (stereo not drawn) |  | inconclusive: 26.6%
Cc1nc2ccccc2c2oc(C(=O)NCc3ccccn3)cc12 | inconclusive: 10 µM [rising, partial curve] | 

Compound | Potency | activity change, negative = inhibition
Nc1nc2ccc(Oc3ccccc3)cc2s1 |  | inactive
CC(=O)NC(=S)c1c(N)n(Cc2ccccc2)c(=O)n(C)c1=O |  | inconclusive: 24.6%
O=C(CCCC(=O)N(CC(=O)NC1CCCC1)Cc1ccc2c(c1)OCO2)Nc1ccccn1 |  | inactive
Cc1cc(C)nc(-n2nc(C)cc2NC(=O)CN2CCc3ccccc3C2)n1 | inconclusive: 1.26 µM [rising, partial curve] | 
O=c1c(-c2cccs2)nc2cnc(Oc3ccccc3)nc2n1-c1ccccc1 | inconclusive: 0.794 µM [rising, full curve] | 
CCn1c(=O)c2cc(S(=O)(=O)NCc3ccccc3)ccc2n(CC)c1=O |  | inconclusive: 5.03%
Cc1cc(NC(=O)COC(=O)C2CCN(S(=O)(=O)c3ccc(Cl)cc3)CC2)no1 |  | inconclusive: -22.5%
CCc1ccc(C(=O)CSC2=C(C#N)C(c3ccco3)C(C(C)=O)=C(C)N2)cc1 (stereo not drawn) | inconclusive: 0.794 µM [rising, full curve, poor fit] | 
O=C(O)CC(O)C(=O)O (stereo not drawn) |  | inconclusive: -7.66%
COc1ccc(CNc2ccnc(-c3ccccc3CN(C)C)n2)c(OC)c1 |  | inactive
Cc1cnc(CNc2nc(-c3ccc(C(=O)N(C)C)cc3)nc3ccccc23)cn1 | active: 7.94 µM | 
O=C1c2ccccc2C(=O)N1c1ccc(Cc2ccc(N3C(=O)c4ccccc4C3=O)cc2)cc1 |  | inactive: -2.29% [at 7.6 µM]
Cc1cccn2c(=O)c(C=NCc3ccccc3)c(NCCO)nc12 | inconclusive: 12.6 µM [rising, single point] | 
O=C1Nc2ccccc2C(O)(C(=O)NCc2ccco2)N1c1ccc(Cl)c(Cl)c1 (stereo not drawn) | inconclusive: 15.8 µM [falling, partial curve] | 
CCOC(=O)Cc1cc(=O)n(-c2nc3ccccc3s2)[nH]1 | inconclusive: 3.98 µM [falling, partial curve] | 
O=C(CSc1oc(-c2ccc(F)cc2)nc1S(=O)(=O)c1ccccc1)NCC1CCCO1 (stereo not drawn) |  | inactive
COc1cccc(C(c2sc3ncnn3c2O)N2CCc3ccccc3C2)c1 (stereo not drawn) | inconclusive: 12.6 µM [rising, partial curve] | 
CCOC(=O)c1ccc(NC(=O)Nc2ccc3c4c(cccc24)C(=O)N3CC)cc1 | inconclusive: 0.126 µM [falling, partial curve] | 
CCOCCCNC(=O)C1CCC(CNS(=O)(=O)c2ccc(F)cc2)CC1 (stereo not drawn) |  | inconclusive: -4.63%
CCNc1ncc2nc(-c3cccs3)c(=O)n(Cc3ccc(F)cc3)c2n1 | inconclusive: 0.631 µM [rising, full curve] | 
